In patent US5143911A, “Antibiotic C-3 di-hydroxyphenyl substituted cephalosporin compounds, compositions and method of use thereof” (Bristol-Myers Squibb Company, priority 1990, dated 1992):

Tests used:
P. aeruginosa A9843A [1] = conditions: Pseudomonas aeruginosa, im, read-out: PD50
Procedure: In vivo antibacterial activity of this series of cephalosporins was determined against three bacterial infections, S. aureus Smith, E. coli Juhl and P. aeruginosa A9843A by intramuscular administration to mice just after the bacterial change.

P. aeruginosa A9843A [2] = conditions: Pseudomonas aeruginosa, 18 h, pH 7.2
Procedure: Medium: MuellerHinton agar (pH = 7.2)
Incubation temperature: 32° C. 18 hr.
Inoculum size: 10^6 cells/ml

| Structure (SMILES) | ED50 (P. aeruginosa A9843A [1]) | MIC (P. aeruginosa A9843A [2]) |
| --- | --- | --- |
| CO/N=C(\C(=O)NC1C(=O)N2C(C(=O)O)=C(/C=C/COC(=O)c3ccc(O)c(O)c3)CS[C@H]12)c1csc(N)n1 (some centres unmarked) [Ia, 7-[(Z)-2-(2-Aminothiazol-4-yl)-2-methoxyiminoacetamido]-3-[(E)-3-(3,4-dihydroxybenzoyloxy)-1-propen-1-yl]-3-cephem-4-carboxylic acid] | 0.62 mg/kg | 3.1 µg/mL (≈ 5.39 µM) |
| CO/N=C(\C(=O)NC1C(=O)N2C(C(=O)O)=C(/C=C/COC(=O)c3ccc(O)c(O)c3)CS[C@H]12)c1nsc(N)n1 (some centres unmarked) [Ib, 7-[(Z)-2-(5-Amino-1,2,4-thiadiazol-3-yl)-2-methoxyiminoacetamido]-3-[(E)-3-(3,4-dihydroxybenzoyloxy)-1-propen-1-yl]-3-cephem-4carboxylic acid] | 0.17 mg/kg |  |
| CC(C)(O/N=C(\C(=O)NC1C(=O)N2C(C(=O)O)=C(/C=C/COC(=O)c3ccc(O)c(O)c3)CS[C@H]12)c1csc(N)n1)C(=O)O (some centres unmarked) [Ic, 7-[(Z)-2-(2-Aminothiazol-4-yl)-2-(1-carboxy-1-methylethoxyimino)acetamido]-3-[(E)-3-(3,4-dihydroxybenzoyloxy)-1-propen-1yl]-3-cephem-4-carboxylic acid] | 0.25 mg/kg |  |
| Nc1nc(/C(=N/O)C(=O)NC2C(=O)N3C(C(=O)O)=C(/C=C/COC(=O)c4ccc(O)c(O)c4)CSC23)cs1 (centres unmarked) [Id, 7-[(Z)-2-(2-Aminothiazol-4-yl)-2-hydroxyiminoacetamido]-3-[(E)-3l-(3,4-dihydroxybenzoyloxy)-1-propen-1-yl]-3-cephem-4-carboxylic acid] |  | > 100 µg/mL |

In brackets after ≈: the same amount, converted by molar mass.
